Values marked as one replicate rest on one cluster of the flow cell; about a third of the high ones do not repeat.
Test system: ATP
Experiment: switch fluorescence ratio, 500 uM ATP over buffer (Cy3 cluster intensity, sum of 5 cycles each) (fold (ratio)); higher = stronger signal-on switching upon ATP binding; sequences stand for … in TCGTCGGCAGCGTCAGATGTGTATAAGAGACAGTTTTTTTTTTTTTTTTTTTTTTTTT…TC
Details: aptamer strand: ATP DNA aptamer (quencher-CACCTGGGGGAGTATTGCGGAGGAAGG + anchor), 100 nM annealed; ATP concentration: 500 uM; one replicate
Procedure, shortened: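 Per cluster, summed Cy3 intensity from the target cycles was divided by that from the buffer cycles to give the fluorescence ratio, then averaged per switch-domain sequence. Clusters outside 100-1000 RFU were excluded. The Cy3-labelled switching-strand clusters, on a modified Illumina MiSeq flow-cell, were annealed to 100 nM quencher-labelled ATP aptamer and imaged in selection buffer, then after 15 min with 500 uM ATP at 22 °C, for five cycles with NaOH stripping and re-annealing between them.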
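Note: ATP exposure 15 min at 22 °C before imaging.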

## ACCTTTTCG
  switch fluorescence ratio: 1.14

## TCTGTCAATA
  switch fluorescence ratio: 1.09

## GAGAAGTTAA
  switch fluorescence ratio: 1.01

## CGGACGAC
  switch fluorescence ratio: 1.08

## TCCCCAACGA
  switch fluorescence ratio: 1.04

## GTTCTGTA
  switch fluorescence ratio: 1.02

## TTAATTCGTG
  switch fluorescence ratio: 1

## ACGAACTTTT
  switch fluorescence ratio: 1.22

## TGCAGCAAGA
  switch fluorescence ratio: 3.95

## GGAAGCCCAC
  switch fluorescence ratio: 1.06

## TCTTAAACGA
  switch fluorescence ratio: 1.01

## CGATAATA
  switch fluorescence ratio: 1.04

## CTGGGGAATT
  switch fluorescence ratio: 1.01

## GAGAACACAG
  switch fluorescence ratio: 1.03

## GAACTGCCAA
  switch fluorescence ratio: 1.07

## CAACCTCGCC
  switch fluorescence ratio: 1.76

## CTATACGAAC
  switch fluorescence ratio: 1.45

## AATTTCAACC
  switch fluorescence ratio: 1.03

## GCTGTGCTGA
  switch fluorescence ratio: 1.01

## CATCGGTGCC
  switch fluorescence ratio: 0.932

## ATTGGTCAGT
  switch fluorescence ratio: 0.924

## ATTGTGTGG
  switch fluorescence ratio: 0.948

## TTCCGTTTTC
  switch fluorescence ratio: 1.24

## CCAAGTTTGA
  switch fluorescence ratio: 0.981

## TGCGCATTGG
  switch fluorescence ratio: 1.22

## CTTGGTCGT
  switch fluorescence ratio: 0.954

## GAACCCGCTA
  switch fluorescence ratio: 2.39

## TGGACAAGAT
  switch fluorescence ratio: 1.02

## CGTACATTAA
  switch fluorescence ratio: 1.01

## CAGAGCAGAT
  switch fluorescence ratio: 1.58

## TATTTCTCAT
  switch fluorescence ratio: 0.978

## GTTGTTTTAC
  switch fluorescence ratio: 1

## TTTTCCGGGA
  switch fluorescence ratio: 1.01

## AGTAGTGCGC
  switch fluorescence ratio: 1.01

## GCATTAACGG
  switch fluorescence ratio: 1.04

## AATACAAACT
  switch fluorescence ratio: 1.14

## ACCGTGGTCA
  switch fluorescence ratio: 1.01

## TTAGCTGCTA
  switch fluorescence ratio: 0.975

## GGCTGCTACG
  switch fluorescence ratio: 1.01

## GGTAGAAAAT
  switch fluorescence ratio: 1.01

## TCGATACCGG
  switch fluorescence ratio: 1.04

## GGACACCGGT
  switch fluorescence ratio: 1.08

## CTGGTCACCC
  switch fluorescence ratio: 1.04

## CTTAGGCGTG
  switch fluorescence ratio: 1.03

## TCTCGTACG
  switch fluorescence ratio: 0.995

## ATGATCTGCA
  switch fluorescence ratio: 0.976

## ATGCAACTGA
  switch fluorescence ratio: 1.02

## GTCGCTGTTC
  switch fluorescence ratio: 0.95

## ACTGGATAT
  switch fluorescence ratio: 1.03

## TGAGTGTATA
  switch fluorescence ratio: 0.958

## CGGGTTCCAT
  switch fluorescence ratio: 1.05

## GTTGGGGAGA
  switch fluorescence ratio: 0.992

## AATGTTTGAA
  switch fluorescence ratio: 1.04

## GTTTGTAGCT
  switch fluorescence ratio: 1.35

## AGTAGCTTTC
  switch fluorescence ratio: 1.11

## CGCATAGTGC
  switch fluorescence ratio: 1.8

## TGCAACTGAT
  switch fluorescence ratio: 1.02

## TGGCAAAAGA
  switch fluorescence ratio: 1.09

## CAGCTGTCCG
  switch fluorescence ratio: 0.994

## AATGAACTCC
  switch fluorescence ratio: 1.04

## GAGGGTCCCT
  switch fluorescence ratio: 0.957

## CAATCGCCTC
  switch fluorescence ratio: 1.12

## CACCTGGGTA
  switch fluorescence ratio: 1

## TTGAGTAAAT
  switch fluorescence ratio: 1.03

## TTGAGAACAA
  switch fluorescence ratio: 0.974

## TACCATGCGA
  switch fluorescence ratio: 1.04

## ACACAGCAAT
  switch fluorescence ratio: 4.96

## CCAGGGAGG
  switch fluorescence ratio: 1.01

## GAGGCGGAGA
  switch fluorescence ratio: 0.986

## TCCATGCTTG
  switch fluorescence ratio: 1.01

## ACTCGTGTAT
  switch fluorescence ratio: 1.02

## ACATCGTAC
  switch fluorescence ratio: 1.18

## ACAGTGATCT
  switch fluorescence ratio: 1.09

## TTGTCCAGAC
  switch fluorescence ratio: 1.03

## TAGCTCTACG
  switch fluorescence ratio: 0.999

## TAGGGTACCC
  switch fluorescence ratio: 1

## TTGAGCCCCC
  switch fluorescence ratio: 1.06

## AGAGTACCAC
  switch fluorescence ratio: 0.949

## CCGGTTTGTA
  switch fluorescence ratio: 0.992

## TATTACCTAG
  switch fluorescence ratio: 1.07

## CTCCCAGATT
  switch fluorescence ratio: 1.43

## GGGCTGGAAG
  switch fluorescence ratio: 1.03

## ACCTCAGGAA
  switch fluorescence ratio: 1.25

## AAGCTGACGG
  switch fluorescence ratio: 1.07

## ATGTGTGG
  switch fluorescence ratio: 1.01

## CCCTCTGTTA
  switch fluorescence ratio: 1.02

## TTTCGGTAAG
  switch fluorescence ratio: 0.998

## CCAAGGCTCG
  switch fluorescence ratio: 0.989

## CGTCCCGTAC
  switch fluorescence ratio: 2.87

## ACGTGGACGT
  switch fluorescence ratio: 1.01

## AGTTACCCTA
  switch fluorescence ratio: 1.1

## GAACTCTCTG
  switch fluorescence ratio: 1.02

## GTCGGGCCGA
  switch fluorescence ratio: 0.989

## TTTACCTAGG
  switch fluorescence ratio: 0.959

## GACTTCAGTG
  switch fluorescence ratio: 0.995

## TTTCGAAT
  switch fluorescence ratio: 0.98

## CGCACGAGGG
  switch fluorescence ratio: 1.02

## AATATGGACC
  switch fluorescence ratio: 1.02

## GGGTGTCGCC
  switch fluorescence ratio: 0.955

## AGCGAAGTTT
  switch fluorescence ratio: 1.02

## CCAGGGGAAC
  switch fluorescence ratio: 1.03

## TATGCTAAAG
  switch fluorescence ratio: 0.988

## GGAAGAGTGG
  switch fluorescence ratio: 0.97

## TTTCTACCAG
  switch fluorescence ratio: 1.03

## AAGTCATAGG
  switch fluorescence ratio: 1.01

## TGCGTTTACT
  switch fluorescence ratio: 1.52

## GAGATCTCCT
  switch fluorescence ratio: 1.02

## ATAGTGTTGC
  switch fluorescence ratio: 0.956

## CCTTGTACGA
  switch fluorescence ratio: 1.09

## TTTGGAGCTG
  switch fluorescence ratio: 1.04

## GTCTACCA
  switch fluorescence ratio: 1.06

## TACCTTTGAA
  switch fluorescence ratio: 1.05

## ATTAAACGAT
  switch fluorescence ratio: 1.05

## GTGTTAAGAA
  switch fluorescence ratio: 1.02

## GCTTTGTAT
  switch fluorescence ratio: 0.978

## TTGATGGTTT
  switch fluorescence ratio: 1.01

## AAATTTAACC
  switch fluorescence ratio: 0.979

## TGCAATTGTT
  switch fluorescence ratio: 1.04

## TGGATATATG
  switch fluorescence ratio: 0.982

## GGACTTATGT
  switch fluorescence ratio: 1.01

## CAAAGGAATA
  switch fluorescence ratio: 0.977

## TTTACGGCTC
  switch fluorescence ratio: 1.22

## GATCTAGGTT
  switch fluorescence ratio: 0.998

## ACTCCTGGGC
  switch fluorescence ratio: 1.43

## TACTTGCGAT
  switch fluorescence ratio: 1.26

## GGAAAAAAAA
  switch fluorescence ratio: 1.08

## CGCTAGCCTT
  switch fluorescence ratio: 1.04

## TGACTATTAG
  switch fluorescence ratio: 0.989

## TGCTTGAACG
  switch fluorescence ratio: 0.987

## ACTAGTTCAA
  switch fluorescence ratio: 0.98

## TTCTGATTAA
  switch fluorescence ratio: 1.01

## GGCGCTTGCT
  switch fluorescence ratio: 1.01

## TTACTCGGGT
  switch fluorescence ratio: 0.968

## CATCGACACC
  switch fluorescence ratio: 1.06

## CGAGGGACGA
  switch fluorescence ratio: 1.02

## GAGAGCAGCA
  switch fluorescence ratio: 1.01

## GAGACAAGTC
  switch fluorescence ratio: 0.932

## TATCGGGAT
  switch fluorescence ratio: 0.972

## GCTTGTAAA
  switch fluorescence ratio: 0.975

## GATATCTGCC
  switch fluorescence ratio: 1

## TTCTTTCATA
  switch fluorescence ratio: 1

## TGAACGGTTA
  switch fluorescence ratio: 1.03

## TTTAACGCTG
  switch fluorescence ratio: 0.951

## TTGAACCGCT
  switch fluorescence ratio: 1.01

## CGAAGTATTA
  switch fluorescence ratio: 1.04

## ATCGATATAA
  switch fluorescence ratio: 0.98

## CGGGATAAC
  switch fluorescence ratio: 1.2

## TGCTAGCCCC
  switch fluorescence ratio: 1.02

## TGCCCTCGCC
  switch fluorescence ratio: 1.43

## CATCTTGGGA
  switch fluorescence ratio: 0.985

## GTGGTTTCGA
  switch fluorescence ratio: 0.988

## AGTGTCTTCG
  switch fluorescence ratio: 1.03

## TTCGTTTGTA
  switch fluorescence ratio: 0.972

## GAGGAGTGCA
  switch fluorescence ratio: 0.981

## AAAGTGGCAA
  switch fluorescence ratio: 1.04

## GGTCGAAGAG
  switch fluorescence ratio: 1.01

## ACGCGCTTCG
  switch fluorescence ratio: 1.03

## ATTTTACTGT
  switch fluorescence ratio: 1.03

## GCTTTGGAAT
  switch fluorescence ratio: 0.977

## AGGGGCATC
  switch fluorescence ratio: 0.993

## CAGGAATAAT
  switch fluorescence ratio: 1.03

## AGACGGTACT
  switch fluorescence ratio: 1.35

## TTTAGTACAA
  switch fluorescence ratio: 1.01

## TCGGCCCGT
  switch fluorescence ratio: 1.01

## TACGCTATAT
  switch fluorescence ratio: 2.36

## AGCCGGACTC
  switch fluorescence ratio: 1.04

## GGCTTCATAG
  switch fluorescence ratio: 0.994

## CTGCACAGAG
  switch fluorescence ratio: 1.04

## TGAGACACTG
  switch fluorescence ratio: 1.12

## GCTCGTGTAG
  switch fluorescence ratio: 1.06

## TATACCCTAC
  switch fluorescence ratio: 1.29

## AAAGCATCAC
  switch fluorescence ratio: 2.05

## CGCCGCGCCT
  switch fluorescence ratio: 1.34

## AGTCTTATAT
  switch fluorescence ratio: 0.985

## CCACAAATGG
  switch fluorescence ratio: 1.1

## CATACCGGTT
  switch fluorescence ratio: 1.01

## CATTTATGTT
  switch fluorescence ratio: 1.01

## GGCGCAGATA
  switch fluorescence ratio: 1.04

## ACCCTGTTTC
  switch fluorescence ratio: 1.01

## CTGACAATTT
  switch fluorescence ratio: 1.02

## GGTTTAGGCG
  switch fluorescence ratio: 0.882

## GGGAGAGATT
  switch fluorescence ratio: 1.01

## GGTTGGAACG
  switch fluorescence ratio: 1.01

## AGAATGCTTG
  switch fluorescence ratio: 1.02

## TCACACACTT
  switch fluorescence ratio: 1.35

## TCGCACCCCA
  switch fluorescence ratio: 1.67

## GGAACATCAC
  switch fluorescence ratio: 1

## CGTCTGGTTT
  switch fluorescence ratio: 0.948

## TTTTCGCAGA
  switch fluorescence ratio: 1.29

## GGTAGAAAGT
  switch fluorescence ratio: 0.957

## AGTTGAC
  switch fluorescence ratio: 1.05

## AAGTATCGCG
  switch fluorescence ratio: 0.994

## CGCAATCGGT
  switch fluorescence ratio: 5.02

## AAGCTTGCGG
  switch fluorescence ratio: 1.05

## ACTGTCTACG
  switch fluorescence ratio: 1.12

## CGTACGAAGA
  switch fluorescence ratio: 1.01

## TTGATAGAGT
  switch fluorescence ratio: 1.01

## ACGCACTCAT
  switch fluorescence ratio: 1.47

## ATGTAGCAGT
  switch fluorescence ratio: 1.7

## TACGCGACGA
  switch fluorescence ratio: 1.04

## GATTAGCGT
  switch fluorescence ratio: 1
